Legend:
GppNp-KRAS G12D = GppNp-KRAS G12D (Homo sapiens, UniProt P01116, G12D); assay: biochemical
GppNp-KRAS G12V = GppNp-KRAS G12V (Homo sapiens, UniProt P01116, G12V); assay: biochemical

SMILES: C#Cc1c(F)ccc2cc(N)cc(-c3nc4c5c(nc(OCC6(CN7CC8CC8C7)CC6)nc5c3F)N3CCCOCC3N4C)c12 (stereo not drawn) [Compound 117]
- IC50 (GppNp-KRAS G12D): 0.702 µM
- IC50 (GppNp-KRAS G12V): 0.884 µM

SMILES: CN(C)CC1(COc2nc3c4c(nc(-c5ccc(F)c6sc(N)c(C#N)c56)c(F)c4n2)N(C)[C@@H]2COCCCN32)CC1(F)F (stereo partly drawn) [Compound 164]
- IC50 (GppNp-KRAS G12D): 0.274 µM
- IC50 (GppNp-KRAS G12V): 0.75 µM

SMILES: C#Cc1c(F)ccc2cc(N)cc(-c3nc4c5c(nc(OC[C@@]67CCCN6C[C@H](F)C7)nc5c3F)N3[C@@H](C)CCO[C@H](C)[C@H]3N4C)c12 [Compound 122]
- IC50 (GppNp-KRAS G12D): 0.174 µM
- IC50 (GppNp-KRAS G12V): 0.169 µM

SMILES: C#Cc1c(F)ccc2cc(N)cc(-c3nc4c5c(nc(OC[C@@]67CCCN6C[C@H](F)C7)nc5c3F)N3CC=CCCC3N4C)c12 (stereo partly drawn) [Compound 99]
- IC50 (GppNp-KRAS G12D): 0.262 µM
- IC50 (GppNp-KRAS G12V): 0.735 µM

SMILES: C#Cc1c(F)ccc2cc(N)cc(-c3nc4c5c(nc(OC[C@@]67CCCN6C[C@H](F)C7)nc5c3F)N3CCCC/C(=C\F)C3N4C)c12 (stereo partly drawn) [Compound 85]
- IC50 (GppNp-KRAS G12D): > 1 µM
- IC50 (GppNp-KRAS G12V): > 1 µM

SMILES: C#Cc1c(F)ccc2cc(N)cc(-c3nc4c5c(nc(OC[C@@]67CCCN6C[C@H](F)C7)nc5c3F)N3CCOCC3N4C3CC3)c12 (stereo partly drawn) [Compound 96]
- IC50 (GppNp-KRAS G12D): > 1 µM
- IC50 (GppNp-KRAS G12V): > 1 µM

SMILES: N#Cc1c(N)sc2c(F)ccc(-c3nc4c5c(nc(OC[C@@]67CCCN6C[C@H](F)C7)nc5c3F)N3CCCOC[C@H]3CO4)c12 [Compound 160]
- IC50 (GppNp-KRAS G12D): 0.0748 µM
- IC50 (GppNp-KRAS G12V): 0.22 µM

SMILES: C#Cc1c(F)ccc2cc(N)cc(-c3nc4c5c(nc(OC[C@@]67CCCN6C[C@H](F)C7)nc5c3F)N3CCCCC(C)C3N4C)c12 (stereo partly drawn) [Compound 121]
- IC50 (GppNp-KRAS G12D): 0.17 µM
- IC50 (GppNp-KRAS G12V): 0.707 µM

SMILES: C[C@H]1CCOC[C@H]2N(C)c3nc(-c4cc(N)cc5ccc(F)c(Cl)c45)c(F)c4nc(OC[C@@]56CCCN5C[C@H](F)C6)nc(c34)N12 [Compound 120]
- IC50 (GppNp-KRAS G12D): 0.134 µM
- IC50 (GppNp-KRAS G12V): 0.467 µM

SMILES: [2H]C#Cc1c(F)ccc2cc(N)cc(-c3nc4c5c(nc(OCC67CCCN6CC(F)C7)nc5c3F)N3CCCOCC3N4C)c12 (stereo not drawn) [Compound 109]
- IC50 (GppNp-KRAS G12D): 0.0344 µM
- IC50 (GppNp-KRAS G12V): 0.0569 µM

SMILES: C#Cc1c(F)ccc2cc(N)cc(-c3nc4c5c(nc(OC[C@@]67CCCN6C[C@H](F)C7)nc5c3F)N3C5CC5COC[C@H]3CO4)c12 (stereo partly drawn) [Compound 35]
- IC50 (GppNp-KRAS G12D): 0.155 µM
- IC50 (GppNp-KRAS G12V): 0.637 µM

SMILES: C#Cc1c(F)ccc2cc(N)cc(-c3nc4c5c(nc(OC[C@@]67CCCN6C[C@H](F)C7)nc5c3F)N3CCCC[C@@H](F)C3N4C)c12 (stereo partly drawn) [Compound 49]
- IC50 (GppNp-KRAS G12D): 0.0481 µM
- IC50 (GppNp-KRAS G12V): 0.0998 µM

SMILES: N#Cc1c(N)sc2c(F)ccc(-c3c(C4CC4)c4c5c(nc(OC[C@@]67CCCN6C[C@H](F)C7)nc5c3F)N3CCCOC[C@H]3CO4)c12 [Compound 132]
- IC50 (GppNp-KRAS G12D): 0.0784 µM
- IC50 (GppNp-KRAS G12V): 0.224 µM

SMILES: C#Cc1c(F)ccc2cc(N)cc(-c3nc4c5c(nc(O[C@@H](C)[C@@H]6[C@@H](OC)CCN6C)nc5c3F)N3CCCOC[C@H]3N4C)c12 [Compound 162]
- IC50 (GppNp-KRAS G12D): 0.928 µM
- IC50 (GppNp-KRAS G12V): > 1 µM

SMILES: C#Cc1cccc2cc(N)cc(-c3nc4c5c(nc(OC[C@@]67CCCN6C[C@H](F)C7)nc5c3F)N3CCCOC[C@H]3N4C)c12 [Compound 51]
- IC50 (GppNp-KRAS G12D): 0.0644 µM
- IC50 (GppNp-KRAS G12V): 0.103 µM

SMILES: C#Cc1c(F)ccc2cc(N)cc(-c3nc4c5c(nc(OC[C@@]67CCCN6C[C@H](F)C7)nc5c3F)N3[C@@H](COCC[C@@H]3C3CC3)CO4)c12 [Compound 64]
- IC50 (GppNp-KRAS G12D): 0.0757 µM
- IC50 (GppNp-KRAS G12V): 0.0751 µM

SMILES: C#Cc1c(F)ccc2cc(N)cc(-c3nc4c5c(nc(OC[C@@]67CCCN6C[C@H](F)C7)nc5c3F)N3CCC(F)CC(F)C3N4C)c12 (stereo partly drawn) [Compound 115]
- IC50 (GppNp-KRAS G12D): 0.0674 µM
- IC50 (GppNp-KRAS G12V): 0.316 µM

SMILES: C#Cc1c(F)ccc2cc(N)cc(-c3nc4c5c(nc(OC[C@@]67CCCN6C[C@H](F)C7)nc5c3F)N3CC(F)CCCC3N4C)c12 (stereo partly drawn) [Compound 47]
- IC50 (GppNp-KRAS G12D): 0.0718 µM
- IC50 (GppNp-KRAS G12V): 0.163 µM

SMILES: C#Cc1c(F)ccc2cc(N)cc(-c3nc4c5c(nc(OC[C@@]67CCCN6C[C@H](F)C7)nc5c3F)N3CC(CC#N)COCC3N4C)c12 (stereo partly drawn) [Compound 126]
- IC50 (GppNp-KRAS G12D): 0.255 µM
- IC50 (GppNp-KRAS G12V): > 1 µM

SMILES: C#Cc1c(F)ccc2cc(N)cc(-c3nc4c5c(nc(OCC6(CN7CCOCC7)CC6(F)F)nc5c3F)N3CCCOC[C@H]3N4C)c12 (stereo partly drawn) [Compound 165]
- IC50 (GppNp-KRAS G12D): > 1 µM
- IC50 (GppNp-KRAS G12V): > 1 µM

SMILES: C#Cc1c(F)ccc2cc(N)cc(-c3nc4c5c(nc(OC[C@@]67CCCN6C[C@H](F)C7)nc5c3F)N3CC(CF)COCC3N4C)c12 (stereo partly drawn) [Compound 124]
- IC50 (GppNp-KRAS G12D): 0.403 µM
- IC50 (GppNp-KRAS G12V): > 1 µM

SMILES: C#Cc1c(F)ccc2cc(N)cc(-c3nc4c5c(nc(OC(C)[C@@]67CCCN6C[C@H](F)C7)nc5c3F)N3CCCOCC3N4C)c12 (stereo partly drawn) [Compound 150]
- IC50 (GppNp-KRAS G12D): > 1 µM
- IC50 (GppNp-KRAS G12V): > 1 µM

SMILES: C#Cc1c(F)ccc2cc(N)cc(-c3nc4c5c(nc(OC[C@@]67CCCN6C[C@H](F)C7)nc5c3F)N3CC(=C)COC[C@H]3N4C)c12 [Compound 138]
- IC50 (GppNp-KRAS G12D): 0.15 µM
- IC50 (GppNp-KRAS G12V): 0.469 µM

SMILES: CSc1cccc2cc(N)cc(-c3nc4c5c(nc(OC[C@@]67CCCN6C[C@H](F)C7)nc5c3F)N3CCCOC[C@H]3N4C)c12 [Compound 149]
- IC50 (GppNp-KRAS G12D): > 1 µM
- IC50 (GppNp-KRAS G12V): > 1 µM

SMILES: C#Cc1c(F)ccc2cc(N)cc(-c3nc4c5c(nc(OC[C@]67CC(=C)CN6C[C@@H](OC)C7)nc5c3F)N3CCCOC[C@H]3N4C)c12 [Compound 170]
- IC50 (GppNp-KRAS G12D): > 1 µM
- IC50 (GppNp-KRAS G12V): > 1 µM

SMILES: C#Cc1c(F)ccc2cc(N)cc(-c3nc4c5c(nc(OC[C@@]67CCCN6C[C@H](F)C7)nc5c3F)N3[C@@H](C)CCCC[C@H]3N4C)c12 [Compound 88]
- IC50 (GppNp-KRAS G12D): 0.0235 µM
- IC50 (GppNp-KRAS G12V): 0.12 µM

SMILES: C#Cc1c(F)ccc2cc(N)cc(-c3nc4c5c(nc(OC[C@@]67CCCN6C[C@H](F)C7)nc5c3F)N3CC(C#N)COCC3N4C)c12 (stereo partly drawn) [Compound 172]
- IC50 (GppNp-KRAS G12D): > 1 µM
- IC50 (GppNp-KRAS G12V): > 1 µM

From patent US20260200947A1, “FUSED CYCLIC COMPOUNDS AND USE THEREOF” (Jacobio Pharmaceuticals Co., Ltd., priority 2022, published 2026)
